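Values below derive from 48-hour exposures of cells grown in 96-well plates, with endpoints linearly interpolated between the two concentrations bracketing the appropriate inhibition level. Here, GI50 denotes the concentration required for 50% inhibition of growth. TGI is the concentration that stops growth completely.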
Test system: NCI-H322M lung
Experiment: growth of human tumour cells (NCI), 48 h

CCN1C(=O)CCCc2c1ccc(Nc1ncc(Cl)c(NC3[C@@H](C(N)=O)[C@@H]4C=C[C@H]3C4)n1)c2OC (stereo not given in full)
GI50: 1.64 µM | TGI: 5.5 µM

COc1cccc(CSCC(=O)O)c1
TGI: > 100 µM

CC(C)CCCC(C)[C@H]1CC[C@H]2[C@@H]3CC[C@H]4C[C@@H](CCC=C(c5cc(Cl)c(O)c(C(=O)OC(C)C)c5)c5cc(Cl)c(O)c(C(=O)OC(C)C)c5)CC[C@]4(C)[C@H]3CC[C@]12C (stereo not given in full)
TGI: > 50 µM

O=[N+]([O-])c1ccc(-c2noc(-c3ccc(Cl)cc3)c2C2=NCCN2)cc1
TGI: > 100 µM

CCCC(O)c1cn(C(NC(=O)c2ccccc2)P(=O)(OCC)OCC)nn1 (stereo not given)
TGI: > 100 µM

COC(=O)CCC1CCc2c(OC)ccc(OC)c2C1=O (stereo not given)
TGI: > 100 µM

CCOC(=O)c1sc2nc(SC)nc3c2c1NCN3c1ccc(F)c(F)c1
TGI: > 76.7 µM

CC1=NN(C(=O)CC(=O)Nc2ccccc2Cl)C(=O)C1N=Nc1ccc(S(=O)(=O)c2ccc(N=NC3C(=O)N(C(=O)CC(=O)Nc4ccccc4Cl)N=C3C)cc2)cc1 (stereo not given)
TGI: > 100 µM

O=C1Nc2ccccc2Cn2c1cc1oc(-c3ccccc3)cc12
TGI: > 100 µM

O=C(O)c1cn(C2CC2)c2cc(N3CCN(C(=O)Nc4nc(-c5ccccc5)cs4)CC3)c(F)cc2c1=O
GI50: 1.99 µM | TGI: > 100 µM

CCOc1cc(Br)c(C(C)NC(=O)c2cccc(OC)c2)cc1OCC (stereo not given)
GI50: 56.7 µM | TGI: > 100 µM

CN(Cc1cccc(F)c1)c1ccc(CO)c(Cl)c1
GI50: 12.4 µM | TGI: 76.3 µM

CCCCCCCC(CC(=O)NC(CO)C(=O)NC(CO)CC(C)C)OC(=O)CC(CCCCCCC)OC(=O)CC(CCCCCCC)OC1OC(C)C(O)C(OC2OC(C)C(O)C(O)C2OC(C)=O)C1O (stereo not given)
TGI: 23.4 µM

CC1=CC(=O)C(C(C)C)=CC1=Nc1cc(Br)c(O)c(Br)c1
GI50: 7.37 µM | TGI: 51.3 µM

Cc1ccc2c(=O)c(C(=O)Nn3c(C)csc3=S)c[nH]c2n1
TGI: > 100 µM

COc1ccc2c(c1)C/C(=C\c1cccc3ccccc13)C2=O
TGI: > 100 µM

Cc1cc2cc3ccc(N(C)C)cc3nc2cc1N
GI50: 0.563 µM | TGI: 4.46 µM

CCCCCc1cc2cc3c(c(O)c2c(=O)[nH]1)C1(CCC3)C(O)=c2c(=O)c3c(=O)cc(OC)c(=O)c=3c(=O)c2=C1O (stereo not given)
TGI: 5.57 µM

CSc1c(C#N)c(N)nc2c(N=Nc3ccc(Br)cc3)c(N)nn12
TGI: 19.9 µM

O=C(CSc1ncn[nH]1)C[P+](c1ccccc1)(c1ccccc1)c1ccccc1
TGI: > 100 µM

O=[N+]([O-])c1ccc(N/N=C/CC(O)(C(F)(F)F)C(F)(F)F)c([N+](=O)[O-])c1
TGI: > 10 µM

CN(COC(=O)c1ccccc1)c1nc(N(C)COC(=O)c2ccccc2)nc(N(C)COC(=O)c2ccccc2)n1
TGI: > 100 µM

O=c1oc2ccc([N+](=O)[O-])cc2c(Nc2ccc3c(c2)Sc2ccccc2O3)c1[N+](=O)[O-]
TGI: 51.5 µM

CCCCCCNC(=O)CCC(NC(=O)c1ccc(N(C)Cc2cnc3nc(N)nc(N)c3n2)cc1)C(=O)NCCCCCC (stereo not given)
TGI: > 100 µM

FC(F)(F)c1ccc(-c2cnc(-n3cc(COCCN4CCCCC4)nn3)nc2NC2CCCCCC2)cc1
GI50: 4.06 µM | TGI: 7.84 µM

COc1cccc2c1-c1c(c3ccc([N+](=O)[O-])cc3c(=O)n1CCCN)C2=O
GI50: 1.83 µM | TGI: 4.76 µM

O=C(CCCCCCCCC(=O)N1C(=O)CC(=O)N(c2ccccc2)C1=S)N1C(=O)CC(=O)N(c2ccccc2)C1=S
TGI: > 100 µM

Cc1ccc(NC(=O)C2C(=O)N(c3ccc(C)c(C)c3)C(=O)/C2=N\NC(N)=O)cc1C (stereo not given)
TGI: > 100 µM

O=C(NC1CCCCC1)c1cc2ccccc2cc1O
TGI: > 100 µM

CC(=O)OCC1OC(OCCCCCCO)C(OC(C)=O)C(OC(C)=O)C1OC(C)=O (stereo not given)
TGI: > 100 µM

Cc1cn(C2C=CC(CO)O2)c(=O)[nH]c1=O (stereo not given)
TGI: > 1000 µM

COC(=O)[C@H]1NC(=O)CCSSC1(C)C
TGI: > 100 µM

O=C1c2ccccc2C(=O)c2c(O)c(NCCCNCCO)cc(O)c21
TGI: 19.8 µM

COc1cc(-c2cc(-c3ccc(Nc4ccnc5cc(Cl)ccc45)cc3)nc(N3CCOCC3)n2)cc(OC)c1OC
GI50: 2.05 µM | TGI: 4.8 µM

O=C(CC1(O)C(=O)Nc2ccc(Br)cc21)c1ccc(Cl)cc1Cl (stereo not given)
TGI: > 100 µM

CCOC(=O)c1c(C)n(Cc2ccccc2)c2c1cc(O)c1[nH]c(Cc3ccccc3)nc12
GI50: 31.2 µM | TGI: > 100 µM

Nc1cc(O)ccc1N=Nc1ccc(-c2nc3ccccc3[nH]2)cc1
GI50: 98.2 µM | TGI: > 100 µM

COc1cccc(-c2ccc3c(c2)C2CCN(Cc4ccccc4)C3C2)c1 (stereo not given)
GI50: 18.2 µM | TGI: 44.2 µM

Cc1cc(-c2ccccc2)nc(Nc2nc3ccccc3o2)n1
TGI: > 100 µM

O=C(O)C[C@@H]1[C@@H](O)[C@@H](O)CN2C(=O)c3ccccc3[C@H]12
TGI: > 100 µM

COc1cc2oc(=O)cc(C)c2cc1O
TGI: > 100 µM

COc1cc2cc(C(=O)N3CC(CCl)c4c3cc(NC(=O)OCc3ccc([N+](=O)[O-])cc3)c3ccccc43)[nH]c2c(OC)c1OC (stereo not given)
TGI: > 100 µM

COc1cc(C2SC(C)C(=O)N2c2ccc(-c3csc(NS(=O)(=O)c4ccc(Cl)c(OC)c4)n3)cc2)ccc1O (stereo not given)
TGI: > 100 µM

COc1ccc(NC(=O)CC(=O)n2nc(C)c(N=Nc3cccc(C)c3)c2C)cc1
TGI: > 100 µM

S=c1[nH]nc(Cc2ccccc2)c(=S)[nH]1
TGI: > 100 µM

CCOC(=O)c1c(Br)c(-c2ccc(OC)cc2)c(Br)n1C
GI50: > 100 µM | TGI: > 100 µM

CC(=O)OCc1cncn1S(=O)(=O)c1ccc(C)cc1
TGI: > 100 µM

Reference: PubChem BioAssay (NCI)
